In PubChem BioAssay AID686978 (National Center for Advancing Translational Sciences (NCATS), 2013):
Out of some 420,000 compounds screened, about 64,000 (15%) were called active. The shares of active, inactive and inconclusive entries below differ from those in the screen. The call rests on the fitted dose curve; in most records, active means well fitted inhibition curve with a large enough effect; inconclusive means small, poorly fitted or top-dose-only effect; inactive means flat fitted curve, though single readings scatter. Potencies of inconclusive entries are left out as doubtful fits.

experiment: qHTS for Inhibitors of human tyrosyl-DNA phosphodiesterase 1 (TDP1): qHTS in cells in absence of CPT; details: DT40 Tdp1-/- hTDP1 cells, no CPT, ATP luminescence, 48 h; activity change, negative = growth inhibition: at 46.2 µM (top of the series) unless noted; further: nearly all actives have a fitted effect of over 55% in size
Method in brief: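 A cellular qHTS used chicken DT40 cells lacking endogenous Tdp1 but carrying stably transfected human TDP1. Compounds were applied without camptothecin, and cell growth kinetics were judged by ATP-dependent luminescence after ≥48 hr.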
On the % scale 0 is the no-effect control and ±100 the full control effect; potency means the concentration at half of the fitted maximal effect; tags describe the fitted curve by direction and shape.

SMILES | Potency | activity change, negative = growth inhibition
O=c1oc2ccccc2c(O)c1Sc1c(O)c2ccccc2oc1=O | inconclusive [inhibitor, single point] | 
CC(Oc1ccc(F)cc1)C(=O)N(CCC1=CCCCC1)c1c(N)n(Cc2ccccc2)c(=O)[nH]c1=O (stereo not drawn) | inconclusive [inhibitor, single point] | 
CC(C)=NNc1nc2c(c(=O)[nH]c(=O)n2C)n1CCc1ccccc1 | inconclusive [inhibitor, partial curve, poor fit] | 
Cc1cccc(C)c1N1C(=O)c2ccccc2NC(=O)C1C(=O)NCc1ccco1 (stereo not drawn) |  | inactive: -26.7%
COC(=O)C(Cc1ccc(OC(=O)c2ccccc2Cl)cc1)N1Cc2ccccc2C1=O (stereo not drawn) | inconclusive [inhibitor, partial curve] | 
Cc1ccc(Cl)cc1NC(=S)N(CCCN1CCOCC1)Cc1ccco1 |  | inactive: 1.13%
CCOc1cc(/C=N/Nc2nc(C)cc(=O)[nH]2)ccc1O |  | inactive: 6.31%
COc1ccc(OC)c(S(=O)(=O)N2CCC(C(=O)N3CCN(Cc4ccccc4)CC3)CC2)c1 | inconclusive [inhibitor, single point] | 
CC(=O)N1c2ccc(S(=O)(=O)N3CCCC(C(=O)N4CCCC(C)C4)C3)cc2CC1C (stereo not drawn) | inconclusive [inhibitor, single point] | 
CCCNC(=O)COCc1cc(-c2ccc3c(c2)OCO3)on1 | inconclusive [inhibitor, single point] | 
CC(=O)C1=CCC(c2ccc(Cl)c(Cl)c2)N(S(=O)(=O)c2ccc(C)cc2)C1 (stereo not drawn) | active: 14.6 µM | 
CCC(C)(C)C1CCC2(CC1)NC(=O)N(CC(=O)NCCc1c[nH]c3ccccc13)C2=O (stereo not drawn) | active: 16.4 µM | 
Cc1cccc(OCC(=O)NCC(=O)N/N=C/c2c(C)[nH]c3ccccc23)c1 | inconclusive [inhibitor, partial curve] | 
COc1ccc(OC)c(C2c3[nH]c4ccccc4c3C[C@H]3C(=O)N(C4CC4)CC(=O)N23)c1 (stereo partly drawn) |  | inactive: -22.2%
CS(=O)(=O)N1CCCC(C(=O)N2CCN(c3cccc(Cl)c3)CC2)C1 (stereo not drawn) | inconclusive [inhibitor, partial curve] | 
CCOc1cc(CNCCN(C)C)c(Cl)cc1OCC(=O)NCCc1ccccc1 | inconclusive [inhibitor, partial curve, poor fit] | 
O=C(c1ccc([N+](=O)[O-])cc1)N(Cc1ccccc1)Cc1ccccc1 | inconclusive [inhibitor, single point] | 
COC(=O)c1ccc(CNC(=O)CSC2=NCCS2)cc1 |  | inactive: 6.78%
